Measured values reported in the supplement of paper PMC3334620.
The full ranking holds about 33,000 sequences; the median of “E-score (-0.5 to 0.5)” is about -0.032, and the highest 2% start at about 0.36. The list shows a part of the results.

target: T1, Sko1 (UniProt Q02100); assay: PBM E-score (8-mer binding enrichment) (E-score (-0.5 to 0.5)); higher = stronger / more preferred TF binding; most listed sequences are background and not binding sites; conditions: protein concentration: 200 nM; construct: GST-full length
T1 sequence: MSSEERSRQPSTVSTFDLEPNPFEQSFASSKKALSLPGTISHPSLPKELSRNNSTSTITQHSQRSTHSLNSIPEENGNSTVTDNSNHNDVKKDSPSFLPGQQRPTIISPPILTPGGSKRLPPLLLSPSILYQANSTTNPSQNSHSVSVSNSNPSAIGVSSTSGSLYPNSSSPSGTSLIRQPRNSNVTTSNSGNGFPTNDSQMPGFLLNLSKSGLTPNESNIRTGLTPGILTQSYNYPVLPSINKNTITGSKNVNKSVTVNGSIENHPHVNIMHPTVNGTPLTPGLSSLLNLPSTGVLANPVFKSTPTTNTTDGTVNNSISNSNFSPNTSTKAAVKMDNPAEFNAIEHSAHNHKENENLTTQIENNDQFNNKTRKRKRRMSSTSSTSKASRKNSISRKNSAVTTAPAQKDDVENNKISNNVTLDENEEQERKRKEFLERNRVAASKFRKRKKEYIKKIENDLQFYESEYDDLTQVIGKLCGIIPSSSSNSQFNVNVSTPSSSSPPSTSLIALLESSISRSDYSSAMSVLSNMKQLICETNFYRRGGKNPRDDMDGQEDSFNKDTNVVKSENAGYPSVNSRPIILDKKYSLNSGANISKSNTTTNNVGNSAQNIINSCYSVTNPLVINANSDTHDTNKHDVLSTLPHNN
How it was run: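 Universal all-10-mer Agilent arrays, double-stranded by primer extension on fresh or once-stripped slides, were probed with about 100-200 nM GST-tagged yeast transcription factors made by PURExpress. Fluorescent anti-GST detected bound protein, and masliner normalised the scans. E-scores from the Universal PBM Analysis Suite were given to each ungapped eight-base word pooled with its reverse complement.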

Sequence	PBM E-score
GTGGGCAA	-0.0649
AAGTCGCC	-0.204
CAGGCAAA	0.00224
CCTGGACC	-0.114
ATCGGAAC	-0.0931
ACCCCACG	-0.149
GCGCTAAC	0.0782
CCAGAGCG	-0.251
ACGTCTAC	0.368
AAATCCCC	-0.238
AGCCTGAA	-0.26
ATGCTCGC	-0.0952
CTAACTAA	0.0491
AACTTGGC	-0.0803
ACCATTGG	-0.15
ACTGACGG	-0.104
ACTCCCTC	-0.256
GACGCATA	0.295
ACACACTC	0.0488
AACGCCTA	-0.122
CATGAATA	0.136
AAGTGTGG	-0.0975
ATCACACA	0.177
CATCGACA	-0.115
CGGGAACG	-0.0966

Sequence	PBM E-score
ACCCCGAG	-0.305
AGGCCTGC	-0.301
AGTCCTCG	-0.187
GGAGCGGA	-0.324
TGATCAAA	0.124
ATAGTAAA	0.18
CAACCCGG	-0.273
GAAATAGC	0.0207
CCAGTCAC	-0.19
CGTTACCC	-0.085
CTGCGGCA	-0.154
AACCGCCA	-0.0575
GACGTACA	0.446
GTTTCAGA	0.0398
AGCGAGCC	-0.107
AGAGAGTC	-0.237
ACCCAAGA	-0.133
CCGTCGGC	-0.337
AAAATTGC	0.169
CAATGGTG	-0.136
ATGGTTCC	-0.0546
CGACCGAG	-0.161
GTGGGAGA	-0.162
CAACTTGC	-0.00599
CATCGAGA	0.0586

Sequence	PBM E-score
CGCGCACA	0.0376
AAAATGTC	0.184
AGCTCTGG	-0.212
ACTCCGAC	-0.179
ATGCTAAC	-0.0063
AGACCGCT	-0.159
CCACCTAA	-0.105
CTCAGAAG	-0.209
ACGGGTGG	-0.173
CATAACAA	0.0788
AACGGAGC	-0.2
CCCCGTAC	-0.196
GGCTGCCA	-0.277
CACACGTC	0.446
AAGTCACT	0.144
CAGATGTC	0.0629
ACTCCCGG	-0.304
CTCAGCTC	-0.284
CCTCCCTA	-0.159
GATGGAGA	-0.163
GAGGAAGC	-0.233
ATGACAGC	0.159
ACGGGGCC	-0.139
CTTTAAGC	-0.0198
CTCGATCC	-0.0525

Sequence	PBM E-score
CTCTACCC	-0.142
AAGATCTC	0.00758
GGGAACAC	-0.139
CGACCAAC	-0.0167
AATACTAG	0.154
AGACACCG	-0.0354
ACCCATGC	-0.039
TCATCAGA	0.144
GGTGGTAC	-0.293
AACCAACG	0.132
TATTTCGA	0.231
GGTGAGTA	-0.195
AGCAGCGC	-0.216
AGTAGCAA	0.141
CAAAACCC	0.131
CCAGCGTC	-0.229
CACTCATC	0.0198
CGCGCCAC	0.0021
AGACCCAA	-0.148
GTGGAAAA	0.0314
GTGCGAAA	0.0883
AGACCACG	0.00258
AAACAAGA	0.0562
AGGACTTC	-0.236
CATCTTCG	-0.0287

Sequence	PBM E-score
GTCACTGA	0.226
ACATGCCT	-0.102
ATTCTGAG	-0.104
TATTGTCA	0.218
ATTTCACA	0.128
ACCGCCGA	-0.205
CTTACAAA	0.00511
CGCGATCC	-0.103
GACAATGC	0.0158
GAGATCCA	-0.146
ACGGTGCG	0.134
GTCAATTA	0.249
ACACGAAA	0.201
TAGTTATA	0.259
AGAGATTC	-0.0146
GGCAACAA	0.0429
AATTCCGA	-0.077
AGATCTGG	-0.231
AACAAGCG	0.163
TACCGAAA	-0.0334
TACACAGA	0.037
CCTTACAC	-0.0485
AAGAAGCT	0.198
ATGCTTAG	0.126
GCGTTGCC	-0.0432

Sequence	PBM E-score
CTTAGCGA	-0.028
AGCGCCTG	-0.237
GACCATTA	0.0674
ACTTACAC	0.114
CAATGTCG	0.275
AATGAGTC	0.0758
GGACGCCA	-0.0848
CATAGGGG	-0.149
GCCGACCA	-0.232
ACAAATGA	0.227
AGACTACT	0.0448
ATCCTAAC	0.0444
CGAGCCGC	0.00566
AGGTAAGG	-0.0698
TGAGCTAA	0.229
AGAGACAA	-0.0923
GATAGGCA	-0.0497
CAAACTCC	0.049
GGAGCTAA	-0.114
AACATGGT	-0.183
ATGGTCAG	0.0509
GAACTGGA	-0.0624
TATGAAAA	0.0631
CGCGTGAA	0.152
AGGATTAA	-0.0239

Sequence	PBM E-score
GACTTGAC	0.0909
AATGAAGC	-0.0775
CCCTGTCC	-0.395
CCGTCTTA	0.00816
AATCGCTG	-0.0909
CGAATGTA	0.0563
GCGGCAAA	-0.177
AATCCCCC	-0.18
ATGTAATC	0.313
CGCCATTA	0.117
CTGCAAAC	-0.114
CAGCAAGA	0.0103
CTCCTAAA	-0.0427
CAATATTA	0.264
TAGGAAAA	0.0436
ACCGCTTA	-0.00218
AAGCTCGG	-0.169
AGAGATTG	0.0375
AGAGCTGA	-0.0834
ATTGTTCC	0.0873
AGGCGGAG	-0.291
GCGCAGCC	-0.339
AGTCGGCA	-0.283
ATATAGAT	0.212
GTCGTGTA	0.169

Sequence	PBM E-score
AACCCACG	0.197
CACCCCAG	-0.051
CCGTCAAC	-0.0749
AATCCACA	-0.0329
AGGTTGGG	-0.0653
TCACCCCA	0.00788
AATATCCA	0.0476
AGTATGAC	0.376
GAGTGGAC	-0.0211
GCGATGAC	0.374
AAAATGTG	0.062
CCGTGATA	-0.0242
AAACCAGG	-0.167
ACCCTCAC	-0.0312
GATTTCCA	-0.117
ATAGCTGA	0.00588
AAGCTAGA	0.0548
GGAAGATA	0.104
CGCACCTC	-0.192
CAGTTGCA	-0.0805
CATGTTAC	0.202
GTAGCAAA	0.135
CCATAGCC	-0.247
CAGCCCCG	-0.18
CCGGCCGA	-0.238

Sequence	PBM E-score
TAGCGTCA	0.398
ATCGGCAT	-0.0245
CACTCTTC	-0.19
GTTAATGA	0.297
CACGCAGG	0.173
CGACAGCC	-0.0783
AAGACATC	0.0317
ATCCTGGA	-0.0497
GGTCCATA	-0.211
ATGATTTC	0.163
GTGAAACA	0.207
CCCCCAGG	-0.245
CGTAAAAC	0.256
CGACATTA	0.255
GTAGCCTA	0.0742
GCATTGAA	0.081
GTAGCGAC	-0.02
GGCCTAGA	-0.134
AGGTAGTC	-0.143
AGCCAGAC	-0.148
ACTCTGAC	0.107
ACTCATCG	0.104
GACAGGAC	-0.0971
GGCCAGGA	-0.265
CGTGTCCC	0.0809

Sequence	PBM E-score
GCTAACGA	0.171
AACTTACA	0.0844
CATAAATG	-0.0208
CATCTTTC	0.0611
ACACCCAT	-0.101
GCGCTACA	0.0112
AAATGTCC	-0.148
AAATTCCC	-0.0767
AATGGCGT	0.387
GGGGGATA	-0.433
AAGGCACG	0.132
AAGTAAGA	-0.0186
AGACGGGG	-0.247
CTGAATAA	0.0914
TAATTATA	0.285
GGCGAAGA	-0.244
CCCCTACG	0.0246
CGCACTAC	0.164
CCAGCTTC	-0.149
ACCACTTG	-0.137
CAAGGATA	-0.108
CACGGTAG	-0.109
GTCGTTAA	0.0709
CCCAAAAC	0.0905
AGCCCCTC	-0.0826

Sequence	PBM E-score
CACTAGTG	-0.143
CATTATGA	0.214
GACGGATA	0.0281
ATCGCTTA	0.0739
TGCACTAA	0.0994
CGGGGGAG	-0.296
AGCACATC	-0.058
AGATTCGG	-0.102
GAGTATGA	0.291
ACTATTGA	0.123
TCCGATAA	-0.216
AGTGGATA	-0.181
ACTTGAGC	-0.172
GATTTTAC	0.173
ACATGAGT	0.00372
CCTATATC	-0.0162
AATTCCTC	-0.0266
GTCGTGGA	-0.0552
CGAAATAG	0.0567
CTCGAAGC	-0.0451
AAGTAGAA	0.148
ACAAGACC	-0.304
ACCAGGAG	-0.281
CTCATAAG	-0.0156
TCTGCGCA	-0.00414

Sequence	PBM E-score
AGAGGTAC	-0.162
CATCCCCC	-0.395
CGTCCGAC	-0.0238
GGAACGAC	0.0688
GACGAAGC	0.0937
GCCGCGAA	-0.268
CTAATAGA	0.15
ATATAGTA	0.176
CTTCCATC	-0.197
CGACCAGA	-0.204
GATCTTGC	0.0122
ATCAGTTG	0.06
ATCGCACG	0.157
TCGGCAAA	-0.139
GAGCGATC	-0.116
AAGCGCGA	-0.0206
GACATAGC	0.199
ATCGGGGC	-0.199
ACCAAGGA	-0.204
AATAGACT	-0.0457
ACTCTCCC	-0.339
ATAACCCC	-0.295
CCGTGTAC	-0.0602
CAGTACTA	-0.00068
CCGAACGG	-0.329

Sequence	PBM E-score
CTCCACAA	0.0357
GGGTAGGA	-0.24
CTAAAGGA	-0.16
ATTTTTTG	0.102
GCCCAAAA	-0.115
AGTGGCAA	0.0246
AACCCTCC	-0.265
ATAAGTCG	0.0932
AGGAGACT	-0.117
AACGTTGG	0.118
CACGCTCA	0.0513
ATGTGCGA	-0.0772
CGTGCGCC	0.0565
CACCAAGA	-0.0669
ATTGGTCC	-0.0697
ATGGCGGA	-0.2
GCGGATAC	0.014
GAAATTTC	-0.206
AGGACCGC	-0.257
GAGTACTA	0.191
CGACTACA	0.0639
AGCTATAG	-0.335
GGGGGTAC	-0.149
AGCAAAGA	-0.159
AGTTGAAT	0.135

Sequence	PBM E-score
AAAGAGCT	-0.238
CAGCTCGC	-0.116
ATGGACTG	-0.134
CTGAAAGC	-0.0367
TCCACCAA	-0.222
AATTTCTC	0.0228
CGACAACC	-0.127
AAGGGATA	-0.00728
AACCAAGA	0.14
GCAAGCGA	0.0365
GATTTATA	0.252
CTGGCTAC	-0.146
CGGGCTGC	-0.301
ACAATCCT	-0.0906
CACATATG	0.0908
ATGTGTCA	0.216
AACCCTGC	-0.156
CGTAGCTA	0.132
GTACCTAA	0.199
